# Source: the supplement of paper PMC8728848
# This is one part of the list.
# B1: SalT (Orysata sativa) (protein)
# chain: MTLVKIGLWGGNGGSAQDISVPPKKLLGVTIYSSDAIRSIAFNYIGVDGQEYAIGPWGGGEGTSTEIKLGSSEHIKEISGTHGPVYDLADIVTYLKIVTSANNTYEAGVPNGKEFSIPLQDSGHVVGFFGRSGTLIDAIGIYVHPILEQKLISEEDLNSAVDHHHHHH
# Experiments:
# Assay in all cases: glycan array binding signal (z-score within array); higher = stronger binding
# Conditions in all cases: glycan notation: IUPAC condensed, linker removed
# [1] = target: Fuc(a1-2)Gal(b1-4)GlcNAc(b1-3)Gal(b1-4)GlcNAc(b1-3)Gal(b1-4)GlcNAc
# In short: (§1)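 Glycan array data came from 3228 arrays in the Consortium for Functional Glycomics database, and only arrays with an available protein sequence were kept. Glycan names were put into IUPAC-condensed notation, and columns mapping to the same glycan were averaged. The binding signal is a within-array Z-score, averaged across arrays of one protein sequence run at different concentrations or buffers and across linkers. A negative Z-score can be read as non-binding.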
# [2] = target: Fuc(a1-2)Gal(b1-4)GlcNAc(b1-3)GalNAc
# In short: as §1
# [3] = target: Fuc(a1-2)Gal(b1-4)GlcNAc(b1-3)[Fuc(a1-2)Gal(b1-4)GlcNAc(b1-6)]GalNAc
# In short: as §1
# [4] = target: Fuc(a1-2)Gal(b1-4)GlcNAc(b1-6)GalNAc
# In short: as §1
# [5] = target: Fuc(a1-2)Gal(b1-4)GlcNAc6S
# In short: as §1
# [6] = target: Fuc(a1-2)Gal(b1-4)[Fuc(a1-3)]GlcNAc
# In short: as §1
# [7] = target: Fuc(a1-2)Gal(b1-4)[Fuc(a1-3)]GlcNAc(b1-2)Man(a1-3)[Fuc(a1-2)Gal(b1-4)[Fuc(a1-3)]GlcNAc(b1-2)Man(a1-6)]Man(b1-4)GlcNAc(b1-4)GlcNAc
# In short: as §1
# [8] = target: Fuc(a1-2)Gal(b1-4)[Fuc(a1-3)]GlcNAc(b1-2)Man(a1-6)[Fuc(a1-2)Gal(b1-4)[Fuc(a1-3)]GlcNAc(b1-2)Man(a1-3)]Man(b1-4)GlcNAc(b1-4)[Fuc(a1-6)]GlcNAc
# In short: as §1
# [9] = target: Fuc(a1-2)Gal(b1-4)[Fuc(a1-3)]GlcNAc(b1-2)[Fuc(a1-2)Gal(b1-4)[Fuc(a1-3)]GlcNAc(b1-4)]Man(a1-3)[Fuc(a1-2)Gal(b1-4)[Fuc(a1-3)]GlcNAc(b1-2)Man(a1-6)]Man(b1-4)GlcNAc(b1-4)GlcNAc
# In short: as §1
# [10] = target: Fuc(a1-2)Gal(b1-4)[Fuc(a1-3)]GlcNAc(b1-3)Gal(b1-4)[Fuc(a1-3)]GlcNAc
# In short: as §1
# [11] = target: Fuc(a1-2)Gal(b1-4)[Fuc(a1-3)]GlcNAc(b1-3)Gal(b1-4)[Fuc(a1-3)]GlcNAc(b1-3)Gal(b1-4)[Fuc(a1-3)]GlcNAc
# In short: as §1
# [12] = target: Fuc(a1-2)Gal(b1-4)[Fuc(a1-3)]GlcNAc(b1-3)GalNAc
# In short: as §1
# [13] = target: Fuc(a1-2)Gal(b1-4)[Fuc(a1-3)]GlcNAc(b1-3)[Neu5Ac(a2-6)Gal(b1-4)GlcNAc(b1-6)]Gal(b1-4)Glc
# In short: as §1
# [14] = target: Fuc(a1-2)Gal6S(b1-3)GlcNAc
# In short: as §1
# [15] = target: Fuc(a1-2)Gal6S(b1-3)GlcNAc6S
# In short: as §1
# Fuc(a1-2)Gal6S(b1-4)Glc = target: Fuc(a1-2)Gal6S(b1-4)Glc
# In short: as §1
# [16] = target: Fuc(a1-2)Gal6S(b1-4)Glc6S
# In short: as §1
# [17] = target: Fuc(a1-2)Gal6S(b1-4)GlcNAc
# In short: as §1
# Fuc(a1-2)[Gal(a1-3)]Gal = target: Fuc(a1-2)[Gal(a1-3)]Gal
# In short: as §1
# [18] = target: Fuc(a1-2)[Gal(a1-3)]Gal(b1-3)GalNAc
# In short: as §1
# [19] = target: Fuc(a1-2)[Gal(a1-3)]Gal(b1-3)GlcNAc
# In short: as §1
# [20] = target: Fuc(a1-2)[Gal(a1-3)]Gal(b1-3)GlcNAc(b1-2)Man(a1-3)[Fuc(a1-2)[Gal(a1-3)]Gal(b1-3)GlcNAc(b1-2)Man(a1-6)]Man(b1-4)GlcNAc(b1-4)GlcNAc
# In short: as §1
# [21] = target: Fuc(a1-2)[Gal(a1-3)]Gal(b1-3)GlcNAc(b1-2)Man(a1-3)[Fuc(a1-2)[Gal(a1-3)]Gal(b1-3)GlcNAc(b1-2)Man(a1-6)]Man(b1-4)GlcNAc(b1-4)[Fuc(a1-6)]GlcNAc
# In short: as §1
# [22] = target: Fuc(a1-2)[Gal(a1-3)]Gal(b1-3)GlcNAc(b1-3)GalNAc
# In short: as §1
# [23] = target: Fuc(a1-2)[Gal(a1-3)]Gal(b1-4)Glc
# In short: as §1
# [24] = target: Fuc(a1-2)[Gal(a1-3)]Gal(b1-4)GlcNAc
# In short: as §1
# [25] = target: Fuc(a1-2)[Gal(a1-3)]Gal(b1-4)GlcNAc(b1-2)Man(a1-3)[Fuc(a1-2)[Gal(a1-3)]Gal(b1-4)GlcNAc(b1-2)Man(a1-6)]Man(b1-4)GlcNAc(b1-4)GlcNAc
# In short: as §1
# [26] = target: Fuc(a1-2)[Gal(a1-3)]Gal(b1-4)GlcNAc(b1-2)Man(a1-3)[Fuc(a1-2)[Gal(a1-3)]Gal(b1-4)GlcNAc(b1-2)Man(a1-6)]Man(b1-4)GlcNAc(b1-4)[Fuc(a1-6)]GlcNAc
# In short: as §1
# [27] = target: Fuc(a1-2)[Gal(a1-3)]Gal(b1-4)GlcNAc(b1-3)GalNAc
# In short: as §1
# [28] = target: Fuc(a1-2)[Gal(a1-3)]Gal(b1-4)GlcNAc(b1-6)GalNAc
# In short: as §1
# [29] = target: Fuc(a1-2)[Gal(a1-3)]Gal(b1-4)[Fuc(a1-3)]Glc
# In short: as §1
# [30] = target: Fuc(a1-2)[Gal(a1-3)]Gal(b1-4)[Fuc(a1-3)]GlcNAc
# In short: as §1
# [31] = target: Fuc(a1-2)[Gal(a1-3)]Gal(b1-4)[Fuc(a1-3)]GlcNAc(b1-3)GalNAc
# In short: as §1
# [32] = target: Fuc(a1-2)[Gal(a1-4)]Gal(b1-4)GlcNAc
# In short: as §1
# [33] = target: Fuc(a1-2)[GalNAc(a1-3)]Gal
# In short: as §1
# [34] = target: Fuc(a1-2)[GalNAc(a1-3)]Gal(b1-3)GalNAc(a1-3)[Fuc(a1-2)]Gal(b1-4)GlcNAc
# In short: as §1
# [35] = target: Fuc(a1-2)[GalNAc(a1-3)]Gal(b1-3)GlcNAc
# In short: as §1
# [36] = target: Fuc(a1-2)[GalNAc(a1-3)]Gal(b1-3)GlcNAc(b1-2)Man(a1-3)[Fuc(a1-2)[GalNAc(a1-3)]Gal(b1-3)GlcNAc(b1-2)Man(a1-6)]Man(b1-4)GlcNAc(b1-4)GlcNAc
# In short: as §1
# [37] = target: Fuc(a1-2)[GalNAc(a1-3)]Gal(b1-3)GlcNAc(b1-2)Man(a1-3)[Fuc(a1-2)[GalNAc(a1-3)]Gal(b1-3)GlcNAc(b1-2)Man(a1-6)]Man(b1-4)GlcNAc(b1-4)[Fuc(a1-6)]GlcNAc
# In short: as §1
# [38] = target: Fuc(a1-2)[GalNAc(a1-3)]Gal(b1-3)GlcNAc(b1-3)GalNAc
# In short: as §1
# [39] = target: Fuc(a1-2)[GalNAc(a1-3)]Gal(b1-3)GlcNAc(b1-6)GalNAc
# In short: as §1
# [40] = target: Fuc(a1-2)[GalNAc(a1-3)]Gal(b1-4)Glc
# In short: as §1
# [41] = target: Fuc(a1-2)[GalNAc(a1-3)]Gal(b1-4)GlcNAc
# In short: as §1
# [42] = target: Fuc(a1-2)[GalNAc(a1-3)]Gal(b1-4)GlcNAc(b1-2)Man(a1-3)[Fuc(a1-2)[GalNAc(a1-3)]Gal(b1-4)GlcNAc(b1-2)Man(a1-6)]Man(b1-4)GlcNAc(b1-4)GlcNAc
# In short: as §1
# [43] = target: Fuc(a1-2)[GalNAc(a1-3)]Gal(b1-4)GlcNAc(b1-2)Man(a1-3)[Fuc(a1-2)[GalNAc(a1-3)]Gal(b1-4)GlcNAc(b1-2)Man(a1-6)]Man(b1-4)GlcNAc(b1-4)[Fuc(a1-6)]GlcNAc
# In short: as §1
binder,measurement,setting,value
B1,glycan array binding signal (z-score),[1],-0.305
same,glycan array binding signal (z-score),[2],-0.307
same,glycan array binding signal (z-score),[3],-0.301
same,glycan array binding signal (z-score),[4],-0.303
same,glycan array binding signal (z-score),[5],-0.308
same,glycan array binding signal (z-score),[6],-0.308
same,glycan array binding signal (z-score),[7],-0.18
same,glycan array binding signal (z-score),[8],0.079
same,glycan array binding signal (z-score),[9],-0.302
same,glycan array binding signal (z-score),[10],-0.308
same,glycan array binding signal (z-score),[11],-0.308
same,glycan array binding signal (z-score),[12],-0.295
same,glycan array binding signal (z-score),[13],-0.309
same,glycan array binding signal (z-score),[14],-0.308
same,glycan array binding signal (z-score),[15],-0.296
same,glycan array binding signal (z-score),Fuc(a1-2)Gal6S(b1-4)Glc,-0.307
same,glycan array binding signal (z-score),[16],-0.308
same,glycan array binding signal (z-score),[17],-0.306
same,glycan array binding signal (z-score),Fuc(a1-2)[Gal(a1-3)]Gal,-0.308
same,glycan array binding signal (z-score),[18],-0.305
same,glycan array binding signal (z-score),[19],-0.306
same,glycan array binding signal (z-score),[20],0.274
same,glycan array binding signal (z-score),[21],-0.258
same,glycan array binding signal (z-score),[22],-0.309
same,glycan array binding signal (z-score),[23],-0.308
same,glycan array binding signal (z-score),[24],-0.308
same,glycan array binding signal (z-score),[25],2.39
same,glycan array binding signal (z-score),[26],0.362
same,glycan array binding signal (z-score),[27],-0.305
same,glycan array binding signal (z-score),[28],-0.308
same,glycan array binding signal (z-score),[29],-0.31
same,glycan array binding signal (z-score),[30],-0.307
same,glycan array binding signal (z-score),[31],-0.307
same,glycan array binding signal (z-score),[32],-0.309
same,glycan array binding signal (z-score),[33],-0.307
same,glycan array binding signal (z-score),[34],-0.308
same,glycan array binding signal (z-score),[35],-0.308
same,glycan array binding signal (z-score),[36],0.034
same,glycan array binding signal (z-score),[37],-0.247
same,glycan array binding signal (z-score),[38],-0.301
same,glycan array binding signal (z-score),[39],-0.305
same,glycan array binding signal (z-score),[40],-0.308
same,glycan array binding signal (z-score),[41],-0.307
same,glycan array binding signal (z-score),[42],2.02
same,glycan array binding signal (z-score),[43],0.057
